# Reference: EP4711384A1 (WIO Bioscience Co., Ltd., dated 2026)
# T1: human IL-18R1 ECD-His (human, UniProt Q13478 22-329)
# T1 sequence: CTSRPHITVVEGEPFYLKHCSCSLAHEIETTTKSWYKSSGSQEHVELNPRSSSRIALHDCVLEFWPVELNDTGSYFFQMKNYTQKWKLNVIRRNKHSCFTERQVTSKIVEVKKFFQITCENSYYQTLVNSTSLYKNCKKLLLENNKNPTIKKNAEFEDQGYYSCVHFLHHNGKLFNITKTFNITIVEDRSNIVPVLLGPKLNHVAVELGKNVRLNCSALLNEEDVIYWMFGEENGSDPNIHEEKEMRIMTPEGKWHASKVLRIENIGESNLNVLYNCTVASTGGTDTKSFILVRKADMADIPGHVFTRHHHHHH
# Target: T1, human IL-18R1 ECD-His
# Test: BLI (Octet), AHC capture, antigen 100 nM
Binder,Kd,koff,kon
R1-A12 single-domain antibody-hFc fusion protein (Fc fusion) QVQLQESGGGPVQAGGSLRLSCSASTTAYDNACMGWFRQAPGKEREGVASIHLRDRTYYADSVKGRFTLSRDGASKTLYLQMNSLKPEDSGTYYCASSNICNGLNLQGNTYWGQGTQVTVSSGS[human IgG1 Fc with changes not shown],2.82 nM,0.000474 s⁻¹,168000 M⁻¹ s⁻¹
hzR1-A12 single-domain antibody-hFc fusion protein (Fc fusion) EVQLVESGGGLVQPGGSLRLSCAASGTAYDNACMGWFRQAPGKEREGVASIHLRDRTYYADSVKGRFTISRDNSKNTLYLQMNSLRAEDTAVYYCASSNICNALNLQGNTYWGQGTLVTVSSGS[human IgG1 Fc with changes not shown],2 nM,0.00018 s⁻¹,90100 M⁻¹ s⁻¹
R1-C7 single-domain antibody-hFc fusion protein (Fc fusion) QVQLQESGGGPVQAEGSLRLSCTASGNLYRDPCMGWFRQAPGKDREGVAAMNTGADSTFYARSVKGRFTISHDNAKNTLYLQMNSVKPEDTAMYYCAASRYCTERTWTWRYDYDYWGQGTQVTVSSGS[human IgG1 Fc with changes not shown],2.56 nM,0.000537 s⁻¹,209000 M⁻¹ s⁻¹
hzR1-C7 single-domain antibody-hFc fusion protein (Fc fusion) EVQLVESGGGLVQPGGSLRLSCAASGNLYRDPCMGWFRQAPGKDREGVAAMNTGADSTFYARSVKGRFTISRDNAKNTLYLQMNSLRAEDTAVYYCAASRYCTERTYTWRYDYDYWGQGTLVTVSSGS[human IgG1 Fc with changes not shown],2.53 nM,0.000515 s⁻¹,204000 M⁻¹ s⁻¹
R1-C10 single-domain antibody-hFc fusion protein (Fc fusion) QVQLQESGGGSVQAGETLRLSCTASGSTFDEYDMGWYRQAPGNKCELVSTISTIDGSTYYADSVKGRFTISQDNTKNTVYLQMNSLKPEDTGVYYCEADDRGTWDRGGCWGQGTQVTVSSGS[human IgG1 Fc with changes not shown],0.0281 nM,0.000147 s⁻¹,5.22e+06 M⁻¹ s⁻¹
hzR1-C10 single-domain antibody-hFc fusion protein (Fc fusion) EVQLVESGGGLVQPGGSLRLSCAASGSTFDEYDMGWYRQAPGGKCELVSTISTIDASTYYADSVKGRFTISRDNSKNTLYLQMNSLRAEDTAVYYCEADDRGTWDRGGCWGQGTLVTVSSGS[human IgG1 Fc with changes not shown],1.45 nM,0.000206 s⁻¹,142000 M⁻¹ s⁻¹
R1-F9 single-domain antibody-hFc fusion protein (Fc fusion) QVQLQESGGGSVQAGETLRLSCTASGFTVHDMGWYRQAPGNECELVSTISSDGSTYYADSVKGRFTISQDNAKNTVYLQMNSLKPEDTAVYYCAADHFTGLQLAECKADFGYWGQGTQVTVSSGS[human IgG1 Fc with changes not shown],1.1 nM,8.73e-05 s⁻¹,79400 M⁻¹ s⁻¹
hzR1-F9 single-domain antibody-hFc fusion protein (Fc fusion) EVQLVESGGGLVQPGGSLRLSCAASGFTVHDMGWYRQAPGKECELVSTISSDASTYYADSVKGRFTISRDNAKNTLYLQMNSLRAEDTAVYYCAADSFTGLQLAECKADFGYWGQGTLVTVSSGS[human IgG1 Fc with changes not shown],3.74 nM,0.000213 s⁻¹,56900 M⁻¹ s⁻¹
